# Source: the supplement of paper PMC8728848
# Some of the results follow.
# B1: PFL (Pseudomonas fluorescens) (protein)
# chain: MSKYAVANQWGGSSAPWHPGGTWVLGARDNQNVVAIEIKSGDGGKSFTGTMTYAGEGPIGFKAQRTGQNQYNVENQWGGNDAPWHPGGKWVIGGRDNQNVIALSVTSSDGGKNLSGTNTYANEGPIGFRGQIE
# Assays:
# Assay in all cases: glycan array binding signal (z-score within array); higher = stronger binding
# Settings in all cases: glycan notation: IUPAC condensed, linker removed
# [1] = target: Gal(b1-4)GlcNAc(b1-6)Gal(b1-4)GlcNAc
# Method in brief: (§1)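 From the Consortium for Functional Glycomics database, 3228 arrays were curated, keeping only those whose protein sequence was available. Binding is given as a within-array Z-score averaged across arrays sharing a protein sequence and across linkers. Negative Z-scores can be read as non-binding.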
# [2] = target: Gal(b1-4)GlcNAc(b1-6)GalNAc
# Method in brief: as §1
# [3] = target: Gal(b1-4)GlcNAc(b1-6)[Gal(b1-3)]GalNAc
# Method in brief: as §1
# [4] = target: Gal(b1-4)GlcNAc(b1-6)[Gal(b1-4)GlcNAc(b1-3)]GalNAc
# Method in brief: as §1
# Gal(b1-4)GlcNAc6P = target: Gal(b1-4)GlcNAc6P
# Method in brief: as §1
# Gal(b1-6)Gal = target: Gal(b1-6)Gal
# Method in brief: as §1
# Gal3S(b1-3)GalNAc = target: Gal3S(b1-3)GalNAc
# Method in brief: as §1
# Gal3S(b1-3)GlcNAc = target: Gal3S(b1-3)GlcNAc
# Method in brief: as §1
# [5] = target: Gal3S(b1-3)[Fuc(a1-4)]GlcNAc
# Method in brief: as §1
# Gal3S(b1-4)Glc = target: Gal3S(b1-4)Glc
# Method in brief: as §1
# Gal3S(b1-4)Glc6S = target: Gal3S(b1-4)Glc6S
# Method in brief: as §1
# Gal3S(b1-4)GlcNAc = target: Gal3S(b1-4)GlcNAc
# Method in brief: as §1
# [6] = target: Gal3S(b1-4)[Fuc(a1-3)]Glc6S
# Method in brief: as §1
# [7] = target: Gal3S(b1-4)[Fuc(a1-3)]GlcNAc
# Method in brief: as §1
# [8] = target: Gal3S(b1-4)[Fuc(a1-3)]GlcNAc6S
# Method in brief: as §1
# Gal3S4S(b1-4)GlcNAc = target: Gal3S4S(b1-4)GlcNAc
# Method in brief: as §1
# Gal3S6S(b1-4)GlcNAc = target: Gal3S6S(b1-4)GlcNAc
# Method in brief: as §1
# Gal3S6S(b1-4)GlcNAc6S = target: Gal3S6S(b1-4)GlcNAc6S
# Method in brief: as §1
# Gal4S(b1-4)GlcNAc = target: Gal4S(b1-4)GlcNAc
# Method in brief: as §1
# Gal4S6S(b1-4)GlcNAc = target: Gal4S6S(b1-4)GlcNAc
# Method in brief: as §1
# Gal6P(b1-4)GlcNAc = target: Gal6P(b1-4)GlcNAc
# Method in brief: as §1
# Gal6S(b1-3)GlcNAc = target: Gal6S(b1-3)GlcNAc
# Method in brief: as §1
# Gal6S(b1-3)GlcNAc6S = target: Gal6S(b1-3)GlcNAc6S
# Method in brief: as §1
binder,measurement,setting,value
B1,glycan array binding signal (z-score),[1],-0.114
same,glycan array binding signal (z-score),[2],-0.112
same,glycan array binding signal (z-score),[3],-0.113
same,glycan array binding signal (z-score),[4],-0.108
same,glycan array binding signal (z-score),Gal(b1-4)GlcNAc6P,-0.114
same,glycan array binding signal (z-score),Gal(b1-6)Gal,-0.107
same,glycan array binding signal (z-score),Gal3S(b1-3)GalNAc,-0.116
same,glycan array binding signal (z-score),Gal3S(b1-3)GlcNAc,-0.114
same,glycan array binding signal (z-score),[5],-0.116
same,glycan array binding signal (z-score),Gal3S(b1-4)Glc,-0.112
same,glycan array binding signal (z-score),Gal3S(b1-4)Glc6S,-0.114
same,glycan array binding signal (z-score),Gal3S(b1-4)GlcNAc,-0.111
same,glycan array binding signal (z-score),[6],-0.102
same,glycan array binding signal (z-score),[7],-0.116
same,glycan array binding signal (z-score),[8],-0.112
same,glycan array binding signal (z-score),Gal3S4S(b1-4)GlcNAc,-0.115
same,glycan array binding signal (z-score),Gal3S6S(b1-4)GlcNAc,-0.105
same,glycan array binding signal (z-score),Gal3S6S(b1-4)GlcNAc6S,-0.116
same,glycan array binding signal (z-score),Gal4S(b1-4)GlcNAc,-0.115
same,glycan array binding signal (z-score),Gal4S6S(b1-4)GlcNAc,-0.118
same,glycan array binding signal (z-score),Gal6P(b1-4)GlcNAc,-0.115
same,glycan array binding signal (z-score),Gal6S(b1-3)GlcNAc,-0.115
same,glycan array binding signal (z-score),Gal6S(b1-3)GlcNAc6S,-0.102
